Measurements taken from PMC12136788.
The other results are listed elsewhere or left out.

B1: chr1:110565788:110565789:+_ENSG00000168710_ENST00000369799|hu_hu|motif|central (ssRNA)
RNA: GGGAGUUCUACAGUCCGACGAUCCUUCUAUUUUUGUUUUUAAUGUCUGUCUCUCUGAUCAGUGGAAAAGUGAAAAUUUCGGGUAUCGGGCACUAACGUAUGACCCAACUUUGAGGGAUCACAAGCUAGAACAAGUUGAGGAUUCAACAGAGGAUUGAGCAUCA
B2: chr2:47389482:47389483:-_ENSG00000143933_ENST00000272298|hu_mus|motif|central (ssRNA)
RNA: GGGAGUUCUACAGUCCGACGAUCCUCUGCUGCACUAAUAUAGCCAUUGCCAUCCUUAUCAAACACACGGAAUGCUUCUCGGAUCUCUUCUUCACUGUCUGUGUCUUUCAUUUUUCUUGCCAUCAUUGUCAGAAAUUCAGGGAACAACAGAGGAUUGAGCAUCA
B3: chr11:76780297:76780298:+_ENSMUSG00000020840_ENSMUST00000021197|mus_hu|FALSE|FALSE (ssRNA)
RNA: GGGAGUUCUACAGUCCGACGAUCGAAGUCAAUGGGCUGGUUGUUGUAUAGAGUUUUUCUCCCUCCAACCAUAUUGCUUAAGUAUUCCACUGUGUAAAGUUUGUUGUACUUGUGCUGGGGCCUAGGGUCAUUCACUAAACAAAUCAACAGAGGAUUGAGCAUCA
B4: chr19:16406628:16406629:+_ENSMUSG00000024639_ENSMUST00000025541|mus_mus|FALSE|FALSE (ssRNA)
RNA: GGGAGUUCUACAGUCCGACGAUCGACACUUUGUAAGUCAAAGGGGUAUUCGAUGAUCCCUGUAGUGGGGACUCGAACUCUAAGCACGUCUUGUUGUGUAGGCAGAUAGGAAGGGUCGGCUACACGGUCCAAGUCAUUCAGAUACAACAGAGGAUUGAGCAUCA
B5: chr18:34367003:34367004:-_ENSG00000134779_ENST00000590842|hu_hu|FALSE|FALSE (ssRNA)
RNA: GGGAGUUCUACAGUCCGACGAUCCCUCAGCUCCCAUUGGAGGGGCUCAACAGCCAGUUUCCAGUGAACACAUUUUCUUCUAUUCAUUUUGAUAUUAUAAGUUAUCUUGGCCUGUGGGCUAAUGCCAUAGCUGGUGAAGGCAUACAACAGAGGAUUGAGCAUCA
B6: chr1:151373259:151373260:+_ENSG00000159377_ENST00000290541|hu_mus|FALSE|FALSE (ssRNA)
RNA: GGGAGUUCUACAGUCCGACGAUCCAAGUAUGCACCAUAACCAGUGGCCAGUGAAGGGGCUUCAUAAGCUACACCAAGCAUGUCCACAUAACCGAGGAAGCUUUCUCCGUCAGCAUAGCCUCCAAUGACCAUGGUGUUCCACAGCAACAGAGGAUUGAGCAUCA
B7: chr7:52357369:52357370:-_ENSMUSG00000003420_ENSMUST00000003512|mus_hu|FALSE|FALSE (ssRNA)
RNA: GGGAGUUCUACAGUCCGACGAUCGUGCUCCCGCAGGCGGUGCGGGCAGGAGAAUAGCAGGAAGGUGAGCUCCUUGUUGGCCGCCUUGUCCUGCUGCUGCCACCGCUGACUGAUAGCCAGGGCCUCGGGCCAGUCCCCACCCCACAACAGAGGAUUGAGCAUCA
B8: chr13:100193941:100193942:-_ENSMUSG00000052727_ENSMUST00000064762|mus_mus|FALSE|FALSE (ssRNA)
RNA: GGGAGUUCUACAGUCCGACGAUCUGUCUGAACUCUCUACAUGGUCAACAUAGAAGUUGAGAAUUCAUUUGUUUUCAAUCUAUUACUUCUCUCACUGAAUGUUUUCCAGGAAAAACAAAAACAAAAAACCAACCCAAGCAAACUCAACAGAGGAUUGAGCAUCA
B9: chr9:5785663:5785664:-_ENSG00000099219_ENST00000339450|hu_mus|FALSE|FALSE (ssRNA)
RNA: GGGAGUUCUACAGUCCGACGAUCCGAGCAAUUUCCAGAGGCUCCUCUUCUGCGGUGCACACGUAACAGUGCUCUUGUUGACAUUCAGACAGUUCUGAGGGCCACUCUGAGAGGCGCCUUCCUGUUCUCACCUGACAAGGAUAUCAACAGAGGAUUGAGCAUCA
B10: 7304538_7304739_528_CDS_ENSMUSG00000024764_ENSMUST00000025675|mouse|control|control (ssRNA)
RNA: GGGAGUUCUACAGUCCGACGAUCAUCGGUCAUUUCCUCCCGUUUUUCUCGGUCCUUCCAGCCCCACUCACUUUGCUCAUACAUCGUCUGCAUAUUGGUUUUGGUCAGGUCGAAGGCCCAGUCCACAGUGGCUGGCUCCAAUCCCAACAGAGGAUUGAGCAUCA
B11: 127212780_127214178_858_CDS_ENSMUSG00000037300_ENSMUST00000118134|mouse|control|control (ssRNA)
RNA: GGGAGUUCUACAGUCCGACGAUCCAGGCUUCCGUGGUGGUAGAGCAUCAUUCCCCGCAGCUGCAGGGUCUGCACGUGGUUCUGGUUGAGCAGCAGGGCCUUCUGGAAGCUCUCGGUGGCUGCGUCAAAGUUGCCCAGUUCUCUCAACAGAGGAUUGAGCAUCA
B12: chrX:141883135:141883136:-_ENSMUSG00000041688_ENSMUST00000112835|mus_hu|FALSE|FALSE (ssRNA)
RNA: GGGAGUUCUACAGUCCGACGAUCCUAUUAAUCUGGUUUCUAACUAAGACAUCCCAAAACCUCUACCCCCAACCCUUACCUAACACCCCCCACUUCCCUCACCCUCCCUAUACCCCUUAAAACUGAUCUUAAUGAUGCUAUCUGCAACAGAGGAUUGAGCAUCA
B13: chr18:34792849:34792850:-_ENSMUSG00000024370_ENSMUST00000133181|mus_hu|FALSE|FALSE (ssRNA)
RNA: GGGAGUUCUACAGUCCGACGAUCCAGCAGACAUUAUAGCAUAUUACCUCCUGCUGUACACACAUGCACAGGCCUGAAACUCUCCAAGAGCACCAUAAGAAUGAUUCCCUUUACCUCAUCUAGAUAAAGGCUGAAAAAAAUGUACAACAGAGGAUUGAGCAUCA
B14: 98312807_98321767_826_CDS_ENSG00000077147_ENST00000371142|human|control|control (ssRNA)
RNA: GGGAGUUCUACAGUCCGACGAUCCCAAUGAAUCCGAUGUUGAAAAAAGGACGGAUCAAGAUAUUUGUCAAAUCGAUCUUCAAAUUUCACAUCUGACUUUUUCCAUUUUACUGAAUAUGACAUCUGGAUUUUAGUAUUUGGAACCAACAGAGGAUUGAGCAUCA

Target: T1, UNK ZnF1-3 (human, UniProt Q9C0B0 31-174)
T1 sequence: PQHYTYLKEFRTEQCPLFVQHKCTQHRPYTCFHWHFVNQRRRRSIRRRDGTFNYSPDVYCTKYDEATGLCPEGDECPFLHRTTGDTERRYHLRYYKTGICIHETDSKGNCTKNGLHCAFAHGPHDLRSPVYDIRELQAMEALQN
Experiment: nsRBNS (natural sequence RNA bind-n-seq); RBNS binding buffer (assumed for nsRBNS): 25 mM Tris pH 7.5, 150 mM KCl, 3 mM MgCl2, 0.01% Triton X-100, 500 ug/ml BSA, 20 U/ml SUPERase-In, 4 C; UNK is unkempt and MSI1 is Musashi-1; names of the RNAs are library labels; protein concentration not given here; high values mean tight binding

Compared with B1, B2 is lower in binding signal: 1.93 enrichment R for the first, 0.83 enrichment R for the second.

First: B3
Second: B4
The binding signal of the first is higher: 0.66 enrichment R for the first, 0.648 enrichment R for the second.

Compared with B5, B6 is lower in binding signal: 1.23 enrichment R for the first, 1.05 enrichment R for the second.

First: B7
Second: B8
The binding signal of the first is lower: 0.754 enrichment R for the first, 1.12 enrichment R for the second.

Compared with B9, B10 is higher in binding signal: 0.578 enrichment R for the first, 0.676 enrichment R for the second.

Compared with B11, B12 is lower in binding signal: 1.45 enrichment R for the first, 1.25 enrichment R for the second.

Compared with B13, B14 is lower in binding signal: 1.53 enrichment R for the first, 0.495 enrichment R for the second.
